Data published in paper PMC4336329 (PLoS ONE, 2015).
The campaign covered roughly 310,000 compounds. About 2,200 (0.71%) showed an effect of 50% or more. Effects have a minus sign here. The list shows a part of the results.

Target: human ether-à-go-go-related gene (hERG) potassium channel (human, UniProt Q12809)
Assay: primary screen, population patch clamp on CHO cells stably expressing hERG

Sequence of human ether-à-go-go-related gene (hERG) potassium channel (Q12809 whole entry, looked up): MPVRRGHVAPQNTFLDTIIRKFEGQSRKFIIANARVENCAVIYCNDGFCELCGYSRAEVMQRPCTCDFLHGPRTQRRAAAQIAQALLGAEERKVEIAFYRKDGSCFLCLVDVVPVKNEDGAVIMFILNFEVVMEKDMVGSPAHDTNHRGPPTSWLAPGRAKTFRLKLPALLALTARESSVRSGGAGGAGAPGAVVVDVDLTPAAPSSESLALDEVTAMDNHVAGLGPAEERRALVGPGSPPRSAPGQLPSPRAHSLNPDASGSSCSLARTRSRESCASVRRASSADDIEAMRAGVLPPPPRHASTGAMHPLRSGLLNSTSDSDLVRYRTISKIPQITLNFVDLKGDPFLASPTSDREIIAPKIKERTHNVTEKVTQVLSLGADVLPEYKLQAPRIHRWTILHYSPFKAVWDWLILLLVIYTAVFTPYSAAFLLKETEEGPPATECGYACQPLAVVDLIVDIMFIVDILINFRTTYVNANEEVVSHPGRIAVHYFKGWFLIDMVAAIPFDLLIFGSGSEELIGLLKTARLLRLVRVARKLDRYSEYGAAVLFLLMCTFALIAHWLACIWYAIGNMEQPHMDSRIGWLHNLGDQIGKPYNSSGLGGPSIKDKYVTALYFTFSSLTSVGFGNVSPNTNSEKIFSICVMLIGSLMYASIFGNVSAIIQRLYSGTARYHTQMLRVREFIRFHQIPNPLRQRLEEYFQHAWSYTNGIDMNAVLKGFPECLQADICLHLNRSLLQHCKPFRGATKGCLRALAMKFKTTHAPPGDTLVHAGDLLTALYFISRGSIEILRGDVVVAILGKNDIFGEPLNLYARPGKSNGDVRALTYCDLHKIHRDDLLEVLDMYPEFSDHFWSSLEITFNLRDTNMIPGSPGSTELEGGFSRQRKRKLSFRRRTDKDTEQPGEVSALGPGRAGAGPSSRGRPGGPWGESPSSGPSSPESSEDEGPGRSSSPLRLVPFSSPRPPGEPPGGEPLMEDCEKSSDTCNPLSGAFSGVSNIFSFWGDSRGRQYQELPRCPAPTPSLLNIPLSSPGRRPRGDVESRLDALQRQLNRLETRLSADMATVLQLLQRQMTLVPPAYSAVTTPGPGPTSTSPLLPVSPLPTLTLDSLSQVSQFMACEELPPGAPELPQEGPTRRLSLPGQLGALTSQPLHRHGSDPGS

SMILES | hERG current change (%, negative = inhibition) at 1uM [%]
Cc1cccn2c(=O)c3cc(C(=O)NCCc4ccccc4)c(=N)n(CCCn4ccnc4)c3nc12 | -61.3
CN(C)CCCNc1ncnc2oc(-c3ccccc3)c(-c3ccccc3)c12 | -16.7
Cc1nn2c(c1-c1ccc(Cl)cc1)N=C(c1ccco1)CC2c1ccccc1 (centres unmarked) | 16.8
Cc1ccc(OCC(=O)NC(C)c2ccccc2)cc1C (centres unmarked) | 8.12
CCC1CCCCN1C(=O)C(=O)c1cn(CC(=O)N(CC)CC)c2ccccc12 (centres unmarked) | 8.26
CS(=O)(=O)N1CCN(c2ccc(NC(=O)Cc3ccccc3)cc2)CC1 | 8.67
[Cl-].c1ccc(CC[C@@H]2CC[C@@H](CCc3ccccc3)N2)cc1 | -32.6
CN1CCN(C2CC(=O)N(CCc3ccccc3)C2=O)CC1 (centres unmarked) | -0.229
C=CCOc1ccccc1CN1CCCCCC1 | 11.6
Cc1nnc(NC(=O)CCC(=O)NCc2cccs2)s1 | 12.5
COc1ccc(C(=O)/C=C/c2ccc(OC)c(CN3CCOCC3)c2)cc1 | -2.3
COc1ccccc1-c1cn[nH]c1-c1ccc(OCc2ccccc2)cc1O | 7.06
COc1ccc(N2CC(C(=O)Nc3nc(-c4ccccc4)c(C(C)=O)s3)CC2=O)c(OC)c1 (centres unmarked) | 8.95
COc1cc2c(cc1OC)C(COc1ccc(C(C)C)cc1)NCC2 (centres unmarked) | 10.6
O=C(NOC(=O)c1c(F)cccc1Cl)c1ccc(Cl)c(Cl)c1 | 15.6
c1ccc(CCNc2nc3ccccc3s2)cc1 | 2.81
COCCN(C(=O)CSc1nnc(-c2ccccc2F)n1N)c1c(N)n(Cc2ccccc2)c(=O)[nH]c1=O | 7.86
COc1cc(/C=C2\SC(N)=NC2=O)ccc1OCC(=O)Nc1ccc(C)cc1 | 2.92
COc1cccc(C2C(C(C)=O)=C(O)C(=O)N2Cc2ccco2)c1 (centres unmarked) | 22.3
OCCc1ccc(O)cc1 | 11.2
Cc1nnc(NC(=O)c2ccc3ccccc3c2)s1 | 15.7
COc1ccc(S(=O)(=O)N(CC(=O)NN=C2CCN(C)CC2)c2cc(Cl)ccc2OC)cc1OC | 11.7
O=C(OCc1cnc(Cl)s1)c1cccs1 | 16.8

SMILES | hERG current change (%, negative = inhibition) at 1uM [%]
COc1ccc(Cl)cc1N(C(=O)Nc1cccc(Cl)c1)C1=NCC(C)S1 (centres unmarked) | 11.1
COCCOc1cc(NC(=O)c2ccccc2)c(Cl)cc1Cl | 4.74
CCN(CCCNC(=O)CCNC(=O)Cn1cnc2ccccc2c1=O)c1ccccc1 | 10.1
Cc1ccc(N(C(=O)c2snc(C(N)=O)c2N)C(CC(C)C)C(=O)NC2CCCC2)cc1 (centres unmarked) | -2.22
O=C(Cc1ccccc1F)Nc1cc(Cl)ccc1N1CCCC1 | 11
COc1ccc(CCC(=O)NCCNC(=O)CCc2ccc(OC)cc2)cc1 | 14.9
CCOc1ccc(C(Nc2ccc(C)cc2)P2(=O)OCC(C)(C)CO2)cc1 (centres unmarked) | 13.7
COC(CNC(=O)C1CC(=O)N(CCc2ccc(C)cc2)C1)OC (centres unmarked) | 12.8
O=[N+]([O-])C(/C=C(/Cl)[N+](=O)[O-])=C(N1CCCCC1)N1CCCCC1 | 12.6
O=S(=O)(c1ccc(NCCOc2ccccc2)nc1)N1CCCC1 | 11
O=C(/C=C/c1cccc([N+](=O)[O-])c1)NCCN1CCOCC1 | 14.4
N#Cc1c(NC(=O)c2ccc(-c3ccccc3[N+](=O)[O-])o2)sc2c1CCCC2 | 7.33
O=C(NCCC(c1ccccc1)c1ccccc1)c1cccs1 | 19.4
OC[C@H]1O[C@@H](Oc2cc(O)cc(/C=C/c3ccc(O)cc3)c2)[C@H](O)[C@@H](O)[C@@H]1O | 11.6
COc1ccc(C2C(O)C(c3c[nH]c4ccccc34)=NN2C(=O)CCl)cc1 (centres unmarked) | 8.64
O=C1c2oc3ccccc3c(=O)c2C(c2cccc(F)c2)N1CCCO (centres unmarked) | 2.61
NS(=O)(=O)c1ccc(C(=O)Nc2ccc(-c3nc4cccnc4s3)cc2)cc1 | 7.63
CC(=O)Nc1ccc(S(=O)(=O)Nc2nc3n(n2)C(c2ccccc2)CC(=O)N3)cc1 (centres unmarked) | 10.1
N#Cc1ccc(C2=CC(=O)C[C@H](c3ccc(F)cc3)C2)cc1 | -61.4
CCOC(=O)c1ccc(-n2[nH]c(-c3ccccc3)cc2=O)cc1 | 12.5
CCOc1ccc(OCCCC(=O)N(C)CC(=O)Nc2ccc(N3CCOCC3)cc2)cc1 | 7.24
COc1ccc(NC(=O)CSc2n[nH]c(-c3ccco3)n2)cc1 | 3.52
O=C(CCc1nnc(CCCc2ccccc2)o1)NCCN1CCOC1=O | 16

SMILES | hERG current change (%, negative = inhibition) at 1uM [%]
Cc1cccc(OCCCC(=O)Nc2ccc(N3CCOCC3)cc2)c1 | 14.2
Cc1cc(-n2cnc(-c3cn(C)nc3C)n2)no1 | 15.3
Cc1ccc(-c2ccc(CCC(=O)O)n2-c2ccc(O)cc2)cc1 | 15
Cc1nc(SCc2ccccc2)[nH]c(=O)c1CC(=O)OCC(C)C | 15.6
CCCC(=O)OCCNc1cc(Sc2nc3ccccc3[nH]2)c2nonc2c1[N+](=O)[O-] | 9.73
O=C(NCCc1ccccc1)C1CCCN1S(=O)(=O)c1ccc(F)cc1 (centres unmarked) | 11
COc1cc(C(=O)OC(C)CN2CCCCC2)cc(OC)c1OC.Cl (centres unmarked) | 11.2
O=C(NCc1cccnc1)c1ccc(NC(=O)c2ccc([N+](=O)[O-])cc2)cc1 | 12.3
COCCN1C(=O)N[C@@H](c2cccs2)C(C(C)=O)=C1C | 12.8
Cc1ccc(NC(=O)C2CC(=O)N(C(C)c3ccccc3)C2)cc1 (centres unmarked) | 7.39
O=C(NCC1CCN(c2ccc(S(=O)(=O)N3CCOCC3)cc2)CC1)c1ccc(Cl)cc1 | -30.5
CCOP(=O)(OCC)C1(O)C(=O)Nc2ccccc21 (centres unmarked) | 2.09
COc1ccc(S(=O)(=O)/C(C#N)=C/Nc2cccc(OC)c2)cc1 | 17.4
CCC(=O)Nc1ccc(Cl)c(NC(=O)c2ccc(Br)o2)c1 | 11.5
CCCNS(=O)(=O)c1ccc(CCC(=O)N2CCC(C)CC2)cc1 | 9.84
O=C(CCc1nc2cccnc2n1Cc1ccccc1)N1CCOCC1 | 1.69
O=C(CCCN1C(=O)/C(=C/c2cccs2)SC1=S)Nc1cccc(C(=O)O)c1 | 6.36
CCOc1ccccc1N(C(=O)c1ccco1)C(C(=O)NC1CCCC1)c1cccs1 (centres unmarked) | -3.75
Cc1ccc2c(COC(=O)CC3Sc4ccccc4NC3=O)cc(=O)oc2c1C (centres unmarked) | 21.3
O=C(c1ccc(C(=O)N2CCCc3ccccc32)nc1)N1CCCc2ccccc21 | 3.94
CC1=C(C#N)C(NC(=O)C2CCCCC2)(C(F)(F)F)C(=O)N1 (centres unmarked) | 15.8
COc1ccc(/C=N/NC(=O)c2ccc(Cl)cc2Cl)cc1COC(C)=O | 10.9
CCOC(=O)N1CCC(NC(=O)CN2C(=O)CCSc3ccccc32)CC1 | -0.183

SMILES | hERG current change (%, negative = inhibition) at 1uM [%]
CCNc1nc(NCC)nc(N(C)/N=C/c2ccco2)n1 | 5.61
COc1ccc(NC(=O)CN(C)C(=O)c2cccc(S(=O)(=O)N3CCN(c4ccccc4)CC3)c2)cc1 | 12.4
O=C(CN1CCN(CC(=O)Nc2ccccc2Cl)CC1)Nc1ccc(F)c(F)c1 | -74
CC(=O)c1cccc(N2Cc3ccccc3C2=NC(=O)CCl)c1 | 14.2
CC(Oc1ccc(Cl)cc1)C(=O)N1CCCc2ccccc21 (centres unmarked) | 8.12
CCN(CC)S(=O)(=O)c1ccc(S(=O)(=O)NCc2cccs2)cc1 | 5.97
CCCCNc1ncnc2c1cnn2-c1ccc(C)cc1C | 4.09
Clc1nccnc1N/N=C/c1ccc(Br)cc1 | -14
CS(=O)(=O)N(Cc1ccc(F)cc1)Cc1nc2ccccc2c(=O)[nH]1 | 6.16
O=C(O)CN1C(=O)NC2(CCOc3ccccc32)C1=O (centres unmarked) | 12.7
COc1cccc(Cn2cccc(NC(=O)NCc3ccccc3)c2=O)c1 | 4.5
Cc1ccc(NC(=O)C(Cc2ccccc2)n2cccc2)cc1 (centres unmarked) | 14.5
c1ccc(CCCN2CCN(c3ccccn3)CC2)cc1 | -6.2
Cc1c(Cl)cccc1Nc1nc(NCCO)c2ccccc2n1.Cl | 5
COc1ccc(CN(C)C(=O)COC(=O)c2ccc3c(c2)OCO3)cc1OC | 6.77
CSc1c(CC(=O)Nc2ccccc2)n(Cc2ccccc2)c2ccccc12 | 11.6
CCC(=O)N(CCC1(C(C)C)CCOC(C)(C)C1)Cc1ccco1 (centres unmarked) | 15.3
Cc1ccc(C(=O)Oc2cccc(-n3cnnn3)c2)cc1 | 7.58
COc1ccc(NC(=O)CN2CCCN(S(=O)(=O)c3ccc(F)cc3)CC2)c(OC)c1 | -8.18
COc1cccc(C2/C(=C(/O)c3ccc4c(c3)CC(C)O4)C(=O)C(=O)N2CCCn2ccnc2)c1 (centres unmarked) | 4.78
